# According to PubChem BioAssay AID2675 (National Center for Advancing Translational Sciences (NCATS), 2010):
# Screen size: about 280,000 compounds; about 100 (0.036%) were called active. The inconclusive results got no clear call from the source; some entries with a clear call stand among them for comparison. The call rests on the fitted dose curve; in most records, active means well fitted inhibition curve with a large enough effect in the signal ratio, with a control signal flat (not every such curve was filed as active); inconclusive means small, poorly fitted or top-dose-only effect, or effect the other way, or a change in a side signal; inactive means no such curve, though single readings can be large or run the other way; the % refers to the signal ratio. Potencies of inconclusive entries are doubtful fits and often do not repeat. A note “side channel” means that the fit belongs to a control or component signal, not to the main read-out.
# Target: Muscleblind-like protein 1 (Homo sapiens) (UniProt Q9NR56)
# Chain of UniProt Q9NR56 (Q9NR56 whole entry, looked up): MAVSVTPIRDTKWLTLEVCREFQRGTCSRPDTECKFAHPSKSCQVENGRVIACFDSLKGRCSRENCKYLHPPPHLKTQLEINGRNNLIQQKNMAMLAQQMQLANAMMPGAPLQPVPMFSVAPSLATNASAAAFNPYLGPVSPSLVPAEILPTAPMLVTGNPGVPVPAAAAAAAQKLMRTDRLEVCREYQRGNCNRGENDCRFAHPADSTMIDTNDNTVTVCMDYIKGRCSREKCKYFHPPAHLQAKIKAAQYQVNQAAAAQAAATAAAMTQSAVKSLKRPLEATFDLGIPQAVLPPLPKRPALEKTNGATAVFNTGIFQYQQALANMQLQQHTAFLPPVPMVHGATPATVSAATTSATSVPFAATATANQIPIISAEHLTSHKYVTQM
# Assay: qHTS Assay for Inhibitors of MBNL1-poly(CUG) RNA binding
# Conditions: TR-FRET MBNL1-His/biotin-(CUG)12 binding, 665/545 ratio; activity change, negative = inhibition: at 57.5 µM (top of the series)
# Summary of the method: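 TR-FRET readout: Ex 340 nm, 665/545 nm emission ratio, normalized to buffer-only (basal) and MBNL1-(CUG)12 controls. Complex of MBNL1-His with Biotin-(CUG)12, compounds 92 nM–58 uM, incubated 60 min at room temperature.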
# On the % scale 0 is the no-effect control and ±100 the full control effect; potency means the concentration at half of the fitted maximal effect; tags describe the fitted curve by direction and shape or compound fluorescence and quenching.
Structure (SMILES),"activity change, negative = inhibition",Potency
COCCNC(=O)c1ccc(C2SCC(=O)N2Cc2ccco2)cc1 (stereo not given),inactive: -6.66%,
CCCCn1c(=O)nc2n(-c3ccccc3C)c3ccccc3cc-2c1=O,,"inconclusive: 4.47 µM [quencher, side channel, full curve]"
O=C(Oc1ccccc1Cl)c1ccc(N2CCOCC2)c([N+](=O)[O-])c1,,"inconclusive: 25.1 µM [quencher, side channel, single point]"
Cc1nc(C(=O)NC2CCOCC2)sc1C1(C)CC(c2cccc([N+](=O)[O-])c2)=NO1 (stereo not given),,"inconclusive: 15.8 µM [quencher, side channel, partial curve]"
O=[N+]([O-])c1ccc(NCc2ccccc2)nc1,,"inconclusive: 31.6 µM [quencher, side channel, partial curve]"
O=C(CSc1nc2ccc(NC(=O)c3ccccc3C(=O)O)cc2s1)Nc1ccc(F)c([N+](=O)[O-])c1,,"inconclusive: 14.1 µM [quencher, partial curve]"
Cc1nnc(SCC(=O)c2ccc(Cl)cc2)n(N)c1=O,,"inconclusive: 3.55 µM [quencher, full curve]"
O=C(Nc1cc(Cl)ccc1O)C1CC(c2c(F)cccc2Cl)=NO1 (stereo not given),inactive: 5.04%,
COc1ccc(/C=N\NC(=O)c2ccccc2)cc1COc1ccc(F)cc1,,"inconclusive: 3.98 µM [quencher, side channel, full curve, poor fit]"
c1cc2c(cc1CN1CCOCC1)OCO2,inactive: 4.1%,
CCN(CC)c1nc(N)c([N+](=O)[O-])c(NCCO)n1,,"inconclusive: 39.8 µM [quencher, side channel, partial curve, poor fit]"
S=C(NCCN1CCOCC1)N/N=C/c1cccs1,,"inconclusive: 35.5 µM [quencher, side channel, single point]"
C=CCOc1c(Br)cc(CNc2ccc(NC(=O)C(C)C)c(OC)c2)cc1OCC,,"inconclusive: 22.4 µM [quencher, side channel, single point]"
COC(=O)CCC(=O)OC1(C)C(=O)C=C2C=C(C3CC3)N(C3CCCC3)C=C2C1=O (stereo not given),,"inconclusive: 17.8 µM [quencher, side channel, partial curve]"
CC(C)(C)c1ccc(/C=N/Nc2nncn2N)cc1,inactive: 13.1%,
O=C(CSc1ccc(-c2cccnc2)nn1)c1ccc([N+](=O)[O-])cc1,,"inconclusive: 12.6 µM [quencher, side channel, partial curve]"
O=[N+]([O-])c1cccc2c(N3CCOCC3)ccnc12,,"inconclusive: 15.8 µM [quencher, side channel, partial curve]"
O=C(N/N=C/C=C/c1cccc([N+](=O)[O-])c1)c1ccncc1,,"inconclusive: 14.1 µM [quencher, side channel, partial curve]"
COc1cc(/C=C2\COC/C(=C\c3ccc(O)c(OC)c3)C2=O)ccc1O,inactive: -18.6%,
Cc1ccc(-c2c(C#N)c(N)n(-c3ccc(C)cc3)c(=O)c2C#N)cc1,inactive: 74.8%,

Structure (SMILES),"activity change, negative = inhibition",Potency
CSc1nncn1/N=C/c1ccc([N+](=O)[O-])cc1,,"inconclusive: 12.6 µM [quencher, partial curve]"
COc1ccc(NC(=O)C2CCCN2S(=O)(=O)c2cccc3nsnc23)c(OC)c1 (stereo not given),,"inconclusive: 3.16 µM [quencher, side channel, full curve, poor fit]"
O=C(NCc1n[nH]c(=S)n1-c1ccc([N+](=O)[O-])cc1)c1ccc(S(=O)(=O)N2CCOCC2)cc1,,"inconclusive: 25.1 µM [quencher, side channel, single point]"
COc1cccc(CNc2ccc([N+](=O)[O-])cc2Cl)c1O,,"inconclusive: 20 µM [quencher, side channel, partial curve]"
CCCCOC(=O)Nc1ccc(C(C)C)cc1,,"inconclusive: 39.8 µM [quencher, side channel, single point]"
O=C(Nc1nnc(CSCc2ccc(Cl)cc2)s1)c1cccc([N+](=O)[O-])c1,,"inconclusive: 0.316 µM [fluorescent, side channel, full curve, poor fit]"
CC1(C)COC(c2ccc(F)c([N+](=O)[O-])c2)=N1,,"inconclusive: 25.1 µM [quencher, side channel, partial curve]"
CCOC(=O)CN(c1cc([N+](=O)[O-])ccc1OC)S(C)(=O)=O,,"inconclusive: 17.8 µM [quencher, side channel, partial curve]"
COc1cccc(-c2cc(C(F)(F)F)n3nc(N)nc3n2)c1,,"inconclusive: 22.4 µM [quencher, side channel, partial curve]"
CC(=O)Nn1cc2c(c1-c1ccccc1)c(=O)n(C)c(=O)n2C,inactive: 15.6%,
CCOC(=O)C(CC)/C(C)=N/NC(=O)c1ccc([N+](=O)[O-])cc1 (stereo not given),,"inconclusive: 4.47 µM [quencher, full curve]"
CC(NCc1cccc(OCc2ccccc2)c1)C(O)c1ccccc1 (stereo not given),inactive: -0.095%,
O=C(N/N=C/c1ccccc1C(=O)O)c1ccncc1,inactive: -0.686%,
CNC(=S)Nc1ccc(N2CCN(c3ccc(C(F)(F)F)cn3)CC2)nc1,inactive: 3.54%,
CC(C)(C)n1cnnc1Sc1ncccc1[N+](=O)[O-],,"inconclusive: 12.6 µM [quencher, side channel, partial curve]"
COc1ccc(C(=O)NC(CC(=O)O)c2cc([N+](=O)[O-])ccc2Cl)cc1 (stereo not given),,"inconclusive: 15.8 µM [quencher, side channel, partial curve]"
Cc1c(C(=O)N/N=C/C(C)C)[nH]c2ccc([N+](=O)[O-])cc12,,"inconclusive: 11.2 µM [quencher, side channel, partial curve]"
O=C(CCCN1C(=O)c2cccc3cccc(c23)C1=O)NCc1ccco1,,"inconclusive: 7.08 µM [quencher, side channel, full curve]"
O=C(O)CSc1c(-c2ccccc2)c2cc(Cl)ccc2[nH]c1=O,,"inconclusive: 100 µM [quencher, side channel, partial curve, poor fit]"
O=C1NC(=S)S/C1=C/c1ccc(N2CCOCC2)o1,,"inconclusive: 4.47 µM [quencher, side channel, full curve]"

Structure (SMILES),"activity change, negative = inhibition",Potency
N#CCc1ccc(C(=O)c2ccccc2F)s1,,"inconclusive: 0.141 µM [quencher, side channel, full curve, poor fit]"
COCCN1C(=O)c2ccc(C(=O)NCc3cccnc3)cc2C1=O,,"inconclusive: 7.08 µM [quencher, side channel, partial curve]"
CCOC(=O)C1(CCCc2ccccc2)CCN(C2CCSCC2)CC1,inactive: 16%,
O=C(c1cc([N+](=O)[O-])ccc1N1CCCCC1)N1CCCCC1,,"inconclusive: 15.8 µM [quencher, side channel, partial curve]"
Cc1cc(=O)oc2cc(OCCCN3C(=O)c4ccccc4C3=O)ccc12,,"inconclusive: 0.282 µM [fluorescent, side channel, partial curve]"
CCC(CC)C(=O)Nc1ccc([N+](=O)[O-])cn1,,"inconclusive: 14.1 µM [quencher, side channel, partial curve]"
COc1cccc2c(SCC(=O)N/N=C/c3ccc(O)c(O)c3)cc(C)nc12,inactive: 15.7%,
Cc1ccc(/C=[N+](\[O-])c2ccc(N(C)C)cc2)c2nsnc12,,"inconclusive: 15.8 µM [quencher, side channel, partial curve]"
COc1cc(/C=N/c2oc(-c3ccccc3)cc2C#N)ccc1O,,"inconclusive: 39.8 µM [quencher, side channel, single point]"
Cc1cc(C)c2c(N)c(C(=O)NN3CC(=O)N(c4ccccc4)CC3=O)sc2n1,,"inconclusive: 10 µM [quencher, side channel, partial curve]"
O=[N+]([O-])c1ccc(SCc2ccco2)cc1N1CCOCC1,,"inconclusive: 25.1 µM [quencher, single point]"
CC1=CC(c2ccccc2)n2nc(N3C(=O)c4ccccc4C3=O)nc2N1 (stereo not given),,"inconclusive: 22.4 µM [quencher, side channel, single point]"
COc1ccc2nc3oc(C(=O)N4CCCCC4)cc3cc2c1,,"inconclusive: 7.08 µM [quencher, side channel, partial curve]"
O=C1c2cccc3cc([N+](=O)[O-])cc(c23)C(=O)N1CCN1CCCC1,,"inconclusive: 7.94 µM [quencher, side channel, partial curve]"
COc1ccc(/C(O)=C2/C(=O)C(=O)N(CCN3CCOCC3)C2c2ccccn2)cc1 (stereo not given),,"inconclusive: 12.6 µM [quencher, side channel, partial curve]"
COc1cccc(C(=O)NCc2nnc(SCC(=O)Nc3nccs3)n2-c2ccccc2)c1,inactive: 5.66%,
COc1ccc(OC)c(CCNC(=O)CSc2ccsc2[N+](=O)[O-])c1,,"inconclusive: 8.91 µM [quencher, side channel, partial curve]"
COc1cc(/C=C2\CCn3c2nc2cc(C(=O)O)ccc2c3=O)ccc1OC(F)F,,"inconclusive: 2.24 µM [quencher, side channel, full curve]"
Cc1ccc(NC(=O)C2=C(O)c3sccc3N(C)S2(=O)=O)cc1,,"inconclusive: 7.94 µM [quencher, side channel, single point]"
O=C(CN1C(=O)c2ccccc2S1(=O)=O)c1ccc2c(c1)OCCCO2,inactive: 0.256%,
